Source: PubChem BioAssay AID463173 (ICCB-Longwood Screening Facility, Harvard Medical School, 2010)
Out of some 52,000 compounds screened, about 4,300 (8.3%) were called active. Cut-off read from the data, not from the text of the source: active = survival mostly below about 52% (no sharp cut-off); inactive = mostly above about 56%. Some of the results follow.

Each compound was assayed on DeltatarO mutant (assay: growth inhibition of S. aureus wild type versus tarO mutant, primary screen, teichoic acid synthesis inhibitors, RN4220, OD600 (AID 463173)). Settings: OD600, 18 h, hits give low values, screened at 18.75 µg/mL (by protocol).

| Structure (SMILES) | survival |
| --- | --- |
| COc1ccccc1C(=O)Nc1ccccc1C(=O)OCc1cc(=O)n2ccsc2n1 | active: -5% |
| CCCOc1ccc(CNC(=O)CCCN2C(=O)CSc3c2c(C)nn3-c2ccccc2)cc1 | inactive: 84% |
| COc1ccccc1NC(=O)CN1C(=O)C(C)(C)c2ccccc21 | inactive: 85% |
| CN(C)c1cc(N)c2ccccc2n1 | inactive: 103% |
| Cc1ccc(CNC(=O)CN2C(=O)C3CCCCN3c3ccc(C(=O)N(C)C)cc32)cc1 (configuration not stated) | inactive: 88% |
| CC1=C(C(=O)Nc2ccccc2C)C(c2sccc2C)n2ncnc2N1 (configuration not stated) | inactive: 95% |
| Cc1ccc(S(N)(=O)=O)cc1NC(=O)c1c(-c2c(Cl)cccc2Cl)noc1C | active: 55% |
| Cc1nc(-c2ccc(F)cc2)sc1CCNC(=O)c1ccccc1C(F)(F)F | inactive: 97% |
| Cc1ccc2oc(C(=O)NCC(c3ccc(Cl)cc3)N3CCOCC3)c(C)c2c1 (configuration not stated) | inactive: 59% |
| CCc1ccc(C2C(C#N)=C(N)OC(C)=C2C(=O)OC)cc1 (configuration not stated) | inactive: 79% |
| Cc1ccc(CNC(=O)c2cc3c(=O)n4cccc(C)c4nc3s2)cc1 | active: 54% |
| CC(C)c1ccc(NC(=O)C2CCCN(S(=O)(=O)c3ccc4[nH]c(=O)oc4c3)C2)cc1 (configuration not stated) | inactive: 83% |
| CCCN(CCC)CCCNC(=O)Cn1ncn2c(cc3sc(CC)cc32)c1=O | inactive: 100% |
| Cc1ccc(CNC(=O)CN2N=C(c3ccc(C)cc3)CCC2=O)cc1 | inactive: 99% |
| CCN(CC)S(=O)(=O)c1ccc2c(c1)c(=O)c(C(=O)N1CCN(c3ccc(OC)cc3)CC1)cn2C | inactive: 83% |
| CCc1ccccc1NC(=O)c1nc2nc(C)cc(C(F)F)n2n1 | inactive: 81% |
| Cc1nnc(C)c2c(C)n(-c3ccc4c(c3)OCO4)c(C)c12 | inactive: 107% |
| Cn1c(-c2cccc(Br)c2)cnc1NCc1cccc(F)c1 | active: 28% |
| Cc1cccc(-c2nnc(SCC(=O)Nc3ccc(C)c(C)c3)o2)c1 | inactive: 74% |
| CCOC(=O)COc1ccc(CC)cc1C(=O)c1ccn2nc(-c3ccc(C)cc3)cc2n1 | inactive: 75% |
| CCN(CC)CCNC(=O)CN1C(=O)CSc2ccc(S(=O)(=O)N3CCOCC3)cc21 | inactive: 77% |
| Cc1ccc(/C=C/c2onc(C)c2S(=O)(=O)N2CCC(C(=O)Nc3cccc(C#N)c3)CC2)cc1 | inactive: 71% |
| Cc1ccccc1CSc1nc2c([nH]c3ccccc32)c(=O)n1-c1ccccc1 | inactive: 118% |

| Structure (SMILES) | survival |
| --- | --- |
| CCc1nnc2c(NCc3ccccc3)nc3ccccc3n12 | inactive: 94% |
| Cc1ccc(-c2nnc(Nc3ccc(F)cc3)c3ccccc23)cc1S(=O)(=O)NC(C)C | inactive: 77% |
| N#Cc1c(C(F)(F)F)cc(-c2cccs2)nc1SCC(=O)Nc1cccc(Br)c1 | inactive: 65% |
| Cc1ccc(C(=O)N2CCN(c3ccccc3)CC2)cc1NC(=O)c1nsc2ccccc12 | inactive: 102% |
| O=C(NCCCN1CCN(c2ccccc2F)CC1)c1ccc2nc(Cc3ccccc3)oc2c1 | active: 46% |
| Cc1ccc(N2C(=O)SC(N(C)c3ccccc3)C2=O)cc1 (configuration not stated) | inactive: 90% |
| O=C(NCc1ccc(Cl)cc1)C1CCN(C(=O)c2cnn(-c3ccccc3)c2-n2cccc2)CC1 | inactive: 65% |
| Cc1ccc(C(=O)Nc2c(C)nc3ccccn3c2=O)cc1 | inactive: 74% |
| Cc1ccc(C)c(N2CCN(C(=O)CCc3c(C)nn(-c4ccc(N5CCCC5)nn4)c3C)CC2)c1 | inactive: 78% |
| CCn1c(SCc2ccccc2)nnc1C1CCCCC1 | inactive: 80% |
| O=C(CCCCCn1c(=O)[nH]c2ccsc2c1=O)NCc1ccccc1 | inactive: 89% |
| Oc1c(C(c2cccc(Br)c2)N2CCCC2)sc2nc(-c3ccco3)nn12 (configuration not stated) | inactive: 83% |
| CCOc1ccc(CNC(=O)Cn2nc(N3CCN(c4ccccc4)CC3)ccc2=O)cc1 | inactive: 72% |
| CCCS(=O)(=O)c1c(S(=O)(=O)CCC)c2cc(C(C)(C)C)ccn2c1C(=O)c1ccc(C)cc1 | inactive: 64% |
| O=C(/C=C/c1ccco1)OCCN1CCOCC1 | inactive: 69% |
| COc1cccc(CN2C(=O)c3ccccc3C2C(=O)NCCc2ccccc2)c1 (configuration not stated) | inactive: 101% |
| CCC(C)NC(=O)c1ccc(Cn2c(=O)c3cccn3c3cccnc32)cc1 (configuration not stated) | inactive: 116% |
| COc1ccc(Nc2nnc(-c3cc4cc(Cl)ccc4oc3=O)s2)cc1 | inactive: 81% |
| COc1cc(SC)ccc1C(=O)N1CCn2c3c(c4cc(C)ccc42)CCCC31 (configuration not stated) | inactive: 70% |
| COc1ccc(-c2nn(-c3ccc(F)cc3)c3c2cnc2cc4c(cc23)OCO4)cc1 | inactive: 79% |
| CCc1ccccc1NC(=O)CSc1nc2n[nH]c(C)c2c(=N)n1-c1cccc(C)c1 | inactive: 94% |
| COc1ccccc1CNc1ccc(-c2nc(-c3ccccc3C)no2)cc1[N+](=O)[O-] | inactive: 91% |
| CCOc1nc(NC(=O)NS(=O)(=O)Oc2cccc(Cl)c2)nc(-c2ccccc2)n1 | inactive: 63% |

| Structure (SMILES) | survival |
| --- | --- |
| CC1CCn2c(nc3cc(C(=O)NCc4ccc(F)cc4)ccc32)C1 (configuration not stated) | inactive: 87% |
| Cc1cc(C)cc(NC(=O)C2CCN(C(=O)c3cnn(-c4ccccc4)c3-n3cccc3)CC2)c1 | inactive: 70% |
| Cc1ccc2c(c1)cc1c(=O)n(CC(=O)NC(C)CCc3ccccc3)nc(C)n12 (configuration not stated) | inactive: 105% |
| CC1CCN(c2ccc(-c3cccc(NS(=O)(=O)c4cccs4)c3)nn2)CC1 | inactive: 89% |
| O=C(NCc1cccs1)c1ccc(CSc2nc3cccnc3n2Cc2ccc(F)cc2)cc1 | inactive: 70% |
| Cc1ccc(CNC(=O)CSc2nc(=O)n(Cc3ccco3)c3c2CCC3)cc1 | inactive: 78% |
| COc1ccc(-c2c(C#N)c(SCC(=O)Nc3ccc(C)cc3)nc(C)c2C(=O)Nc2ccccc2)cc1 | inactive: 83% |
| O=C(O)CCSc1nnnn1-c1ccccc1 | inactive: 73% |
| COc1cccc(CNC(=O)CN2CCCN(Cc3ccccc3)S2(=O)=O)c1 | inactive: 77% |
| Cc1ccn2c(Nc3ccc4c(c3)OCO4)c(-c3ccc(Cl)cc3)nc2c1 | inactive: 96% |
| O=C(Nc1ccc(F)c(F)c1)c1cc(S(=O)(=O)NCc2ccc3c(c2)OCO3)ccc1F | inactive: 77% |
| CCOC(=O)c1nn2c(C(F)(F)F)cc(-c3ccc(C)cc3)nc2c1Cl | inactive: 76% |
| CN1C(=S)NC(C)(C)CC1(C)O (configuration not stated) | inactive: 92% |
| CCCCC(=O)Nc1nnc(SCc2cc(=O)n3cc(C)ccc3n2)s1 | inactive: 79% |
| Cc1nn(C)c(C)c1CCNC(=O)Nc1cccc(Cl)c1C | inactive: 67% |
| COc1ccc(Cn2cc(C(=O)c3ccc(F)cc3)c(=O)c3cc4c(cc32)OCCO4)cc1 | inactive: 66% |
| CC(=O)Nc1nonc1-c1nnc(SCC(=O)Nc2cccc(C)c2C)n1-c1ccccc1 | inactive: 61% |
| COc1ccc(-c2nc3ccccc3o2)cc1NC(=O)c1ccc(-c2ccc(Br)cc2)o1 | active: 43% |
| CC1CCN(C(=O)Cn2cc(SCC(=O)Nc3ccccc3C(F)(F)F)c3ccccc32)CC1 | inactive: 93% |
| COc1ccc(-c2nc(CCNC(=O)c3c(F)cccc3Cl)cs2)cc1 | inactive: 128% |
| CCCCc1nn2c(=O)cc(COC(=O)c3ccco3)nc2s1 | inactive: 77% |
| CCCCNc1ccc(-c2nc(-c3ccncc3)no2)cc1[N+](=O)[O-] | inactive: 59% |
| COc1ccc(-c2csc(NCCCN(C)C)n2)cc1 | inactive: 91% |

| Structure (SMILES) | survival |
| --- | --- |
| COc1cccc(NC(=O)Cn2c(=O)ccc3cc(S(=O)(=O)N4CCC(C)CC4)ccc32)c1 | inactive: 69% |
| CCSc1nc2c([nH]c3ccccc32)c(=O)n1-c1cccc(OC)c1 | inactive: 94% |
| OCCCc1n[nH]c(=S)n1-c1ccccc1 | inactive: 93% |
| CCOc1ccc(-c2nnc(SCC(=O)NC(C)CC)nc2-c2ccc(OCC)c(OC)c2)cc1OC (configuration not stated) | inactive: 67% |
| Cc1cccc(-c2cc3nc(C)cc(NCCCn4ccnc4)n3n2)c1 | inactive: 88% |
| O=C1NC2(CCCCC2)C(=O)N1c1ccc(Cl)cc1 | inactive: 109% |
| Cn1nc(-c2ccc(OCC(=O)Nc3ccc(Cl)cc3)cc2)c2ccccc2c1=O | inactive: 74% |
| CCN(C(=O)c1cc2c(=O)n(CC)c3ccccc3c2s1)c1cccc(C(F)(F)F)c1 | inactive: 72% |
| COc1ccc(Br)cc1CNC(=O)c1cnc2sc(N3CCCCCC3)nn2c1=O | inactive: 99% |
| Cc1cccc(NC(=O)C2CCCN(S(=O)(=O)c3c(C)n[nH]c3C)C2)c1 (configuration not stated) | inactive: 135% |
| CCC(C(=O)Nc1ccccc1)n1nc(-c2cc(C)ccc2C)ccc1=O (configuration not stated) | active: 37% |
| CCN(CC)C(=O)CSc1nc(C)cc(C)n1 | inactive: 69% |
| Cc1ccc(CN2C(=O)C(=O)c3cc(Br)cc(C)c32)cc1 | active: 31% |
| CCN1C(=O)N(c2ccc(C(C)=O)cc2)S(=O)(=O)c2ccccc21 | inactive: 83% |
| CSc1ccc(CCNC(=O)Cn2ncn3c(cc4ccccc43)c2=O)cc1 | inactive: 77% |
| CCOc1ccc(-n2c(=O)c3c(C)c(C)sc3n(CC(=O)Nc3ccc(CC)cc3)c2=O)cc1 | active: 46% |
| Cc1ccccc1Nc1c(-c2cccnc2)nc2cccc(C)n12 | inactive: 92% |
| C/C(=N\NC(=O)c1ccc(N)cc1)C(C)(C)C | inactive: 65% |
| O=C(NCCN1CCCC1)c1ccc(Cl)cc1 | inactive: 98% |
| CC(C)CCn1nnnc1CN1CCN(C(=O)c2ccco2)CC1 | inactive: 60% |
| CC(C)c1ccc(NC(=O)C2Cc3ccccc3N2C(=O)c2ccccc2)cc1 (configuration not stated) | inactive: 69% |
| COc1ccc(CNc2nc(-c3ccc(Cl)cc3)nn2C(=O)c2ccccc2)cc1 | active: 36% |
| COc1ccccc1CNC(=O)c1ccc(CSc2nc3ccncc3n2Cc2ccccc2C)cc1 | inactive: 74% |
